# Experimental data: the supplement of paper PMC8728848
# Some of the results follow.
# B1: MAL-II (Maackia amurensis), P93248 (protein)
# chain: ATSNSKPTQVLLATFLTFFFLLLNNVNSSDELSFTINNFVPNEADLLFQGEASVSSTGVLQLTRVENGQPQQYSVGRALYAAPVRIWDNTTGSVASFSTSFTFVVKAPNPTITSDGLAFFLAPPDSQIPSGRVSKYLGLFNNSNSDSSNQIVAVEFDTYFGHSYDPWDPNYRHIGIDVNGIESIKTVQWDWINGGVAFATITYLAPNKTLIASLVYPSNQTSFIVAASVDLKEILPEWVRVGFSAATGYPTQVETHDVLSWSFTSTLEANSDAATENNVHIARYTA
# Columns and labels:
# Assay in all cases: glycan array binding signal (z-score within array); higher = stronger binding
# Details in all cases: glycan notation: IUPAC condensed, linker removed
# [1] = molecular target: Fuc(a1-2)Gal(b1-4)GlcNAc(b1-2)[Fuc(a1-2)Gal(b1-4)GlcNAc(b1-4)]Man(a1-3)[Fuc(a1-2)Gal(b1-4)GlcNAc(b1-2)Man(a1-6)]Man(b1-4)GlcNAc(b1-4)GlcNAc
# Method in brief: (§1)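 Glycan array binding is given as a within-array Z-score, which can be read as non-binding when negative. The arrays, 3228 of them, came from the Consortium for Functional Glycomics database and were retained only where the protein sequence was available. Z-scores were averaged across arrays of the same protein sequence at different concentrations or buffers and across linkers.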
# [2] = molecular target: Fuc(a1-2)Gal(b1-4)GlcNAc(b1-3)Gal(b1-4)GlcNAc
# Method in brief: as §1
# [3] = molecular target: Fuc(a1-2)Gal(b1-4)GlcNAc(b1-3)Gal(b1-4)GlcNAc(b1-2)Man(a1-3)[Fuc(a1-2)Gal(b1-4)GlcNAc(b1-3)Gal(b1-4)GlcNAc(b1-2)Man(a1-6)]Man(b1-4)GlcNAc(b1-4)GlcNAc
# Method in brief: as §1
# [4] = molecular target: Fuc(a1-2)Gal(b1-4)GlcNAc(b1-3)Gal(b1-4)GlcNAc(b1-3)Gal(b1-4)GlcNAc
# Method in brief: as §1
# [5] = molecular target: Fuc(a1-2)Gal(b1-4)GlcNAc(b1-3)GalNAc
# Method in brief: as §1
# [6] = molecular target: Fuc(a1-2)Gal(b1-4)GlcNAc(b1-3)[Fuc(a1-2)Gal(b1-4)GlcNAc(b1-6)]GalNAc
# Method in brief: as §1
# [7] = molecular target: Fuc(a1-2)Gal(b1-4)GlcNAc(b1-3)[Fuc(a1-3)[Gal(b1-4)]GlcNAc(b1-6)]Gal(b1-4)Glc
# Method in brief: as §1
# [8] = molecular target: Fuc(a1-2)Gal(b1-4)GlcNAc(b1-6)GalNAc
# Method in brief: as §1
# [9] = molecular target: Fuc(a1-2)Gal(b1-4)GlcNAc6S
# Method in brief: as §1
# [10] = molecular target: Fuc(a1-2)Gal(b1-4)[Fuc(a1-3)]GlcNAc
# Method in brief: as §1
# [11] = molecular target: Fuc(a1-2)Gal(b1-4)[Fuc(a1-3)]GlcNAc(b1-2)Man(a1-3)[Fuc(a1-2)Gal(b1-4)[Fuc(a1-3)]GlcNAc(b1-2)Man(a1-6)]Man(b1-4)GlcNAc(b1-4)GlcNAc
# Method in brief: as §1
# [12] = molecular target: Fuc(a1-2)Gal(b1-4)[Fuc(a1-3)]GlcNAc(b1-2)Man(a1-3)[Fuc(a1-2)Gal(b1-4)[Fuc(a1-3)]GlcNAc(b1-2)Man(a1-6)]Man(b1-4)GlcNAc(b1-4)[Fuc(a1-6)]GlcNAc
# Method in brief: as §1
# [13] = molecular target: Fuc(a1-2)Gal(b1-4)[Fuc(a1-3)]GlcNAc(b1-2)[Fuc(a1-2)Gal(b1-4)[Fuc(a1-3)]GlcNAc(b1-4)]Man(a1-3)[Fuc(a1-2)Gal(b1-4)[Fuc(a1-3)]GlcNAc(b1-2)Man(a1-6)]Man(b1-4)GlcNAc(b1-4)GlcNAc
# Method in brief: as §1
# [14] = molecular target: Fuc(a1-2)Gal(b1-4)[Fuc(a1-3)]GlcNAc(b1-3)Gal(b1-4)[Fuc(a1-3)]GlcNAc
# Method in brief: as §1
# [15] = molecular target: Fuc(a1-2)Gal(b1-4)[Fuc(a1-3)]GlcNAc(b1-3)Gal(b1-4)[Fuc(a1-3)]GlcNAc(b1-3)Gal(b1-4)[Fuc(a1-3)]GlcNAc
# Method in brief: as §1
# [16] = molecular target: Fuc(a1-2)Gal(b1-4)[Fuc(a1-3)]GlcNAc(b1-3)GalNAc
# Method in brief: as §1
# [17] = molecular target: Fuc(a1-2)Gal(b1-4)[Fuc(a1-3)]GlcNAc(b1-3)[Neu5Ac(a2-6)Gal(b1-4)GlcNAc(b1-6)]Gal(b1-4)Glc
# Method in brief: as §1
# [18] = molecular target: Fuc(a1-2)Gal3S(b1-4)GlcNAc
# Method in brief: as §1
# [19] = molecular target: Fuc(a1-2)Gal6S(b1-3)GlcNAc
# Method in brief: as §1
# [20] = molecular target: Fuc(a1-2)Gal6S(b1-3)GlcNAc6S
# Method in brief: as §1
# Fuc(a1-2)Gal6S(b1-4)Glc = molecular target: Fuc(a1-2)Gal6S(b1-4)Glc
# Method in brief: as §1
# [21] = molecular target: Fuc(a1-2)Gal6S(b1-4)Glc6S
# Method in brief: as §1
# [22] = molecular target: Fuc(a1-2)Gal6S(b1-4)GlcNAc
# Method in brief: as §1
# Fuc(a1-2)GlcNAc = molecular target: Fuc(a1-2)GlcNAc
# Method in brief: as §1
# Fuc(a1-2)[Gal(a1-3)]Gal = molecular target: Fuc(a1-2)[Gal(a1-3)]Gal
# Method in brief: as §1
# [23] = molecular target: Fuc(a1-2)[Gal(a1-3)]Gal(b1-3)GalNAc
# Method in brief: as §1
# [24] = molecular target: Fuc(a1-2)[Gal(a1-3)]Gal(b1-3)GalNAc(b1-3)Gal(a1-4)Gal(b1-4)Glc
# Method in brief: as §1
# [25] = molecular target: Fuc(a1-2)[Gal(a1-3)]Gal(b1-3)GlcNAc
# Method in brief: as §1
# [26] = molecular target: Fuc(a1-2)[Gal(a1-3)]Gal(b1-3)GlcNAc(b1-2)Man(a1-3)[Fuc(a1-2)[Gal(a1-3)]Gal(b1-3)GlcNAc(b1-2)Man(a1-6)]Man(b1-4)GlcNAc(b1-4)GlcNAc
# Method in brief: as §1
# [27] = molecular target: Fuc(a1-2)[Gal(a1-3)]Gal(b1-3)GlcNAc(b1-2)Man(a1-3)[Fuc(a1-2)[Gal(a1-3)]Gal(b1-3)GlcNAc(b1-2)Man(a1-6)]Man(b1-4)GlcNAc(b1-4)[Fuc(a1-6)]GlcNAc
# Method in brief: as §1
# [28] = molecular target: Fuc(a1-2)[Gal(a1-3)]Gal(b1-3)GlcNAc(b1-3)GalNAc
# Method in brief: as §1
# [29] = molecular target: Fuc(a1-2)[Gal(a1-3)]Gal(b1-3)GlcNAc(b1-6)GalNAc
# Method in brief: as §1
# [30] = molecular target: Fuc(a1-2)[Gal(a1-3)]Gal(b1-4)Glc
# Method in brief: as §1
# [31] = molecular target: Fuc(a1-2)[Gal(a1-3)]Gal(b1-4)GlcNAc
# Method in brief: as §1
# [32] = molecular target: Fuc(a1-2)[Gal(a1-3)]Gal(b1-4)GlcNAc(b1-2)Man
# Method in brief: as §1
# [33] = molecular target: Fuc(a1-2)[Gal(a1-3)]Gal(b1-4)GlcNAc(b1-2)Man(a1-3)[Fuc(a1-2)[Gal(a1-3)]Gal(b1-4)GlcNAc(b1-2)Man(a1-6)]Man(b1-4)GlcNAc(b1-4)GlcNAc
# Method in brief: as §1
# [34] = molecular target: Fuc(a1-2)[Gal(a1-3)]Gal(b1-4)GlcNAc(b1-2)Man(a1-3)[Fuc(a1-2)[Gal(a1-3)]Gal(b1-4)GlcNAc(b1-2)Man(a1-6)]Man(b1-4)GlcNAc(b1-4)[Fuc(a1-6)]GlcNAc
# Method in brief: as §1
# [35] = molecular target: Fuc(a1-2)[Gal(a1-3)]Gal(b1-4)GlcNAc(b1-3)GalNAc
# Method in brief: as §1
# [36] = molecular target: Fuc(a1-2)[Gal(a1-3)]Gal(b1-4)GlcNAc(b1-6)GalNAc
# Method in brief: as §1
# [37] = molecular target: Fuc(a1-2)[Gal(a1-3)]Gal(b1-4)[Fuc(a1-3)]Glc
# Method in brief: as §1
# [38] = molecular target: Fuc(a1-2)[Gal(a1-3)]Gal(b1-4)[Fuc(a1-3)]GlcNAc
# Method in brief: as §1
# [39] = molecular target: Fuc(a1-2)[Gal(a1-3)]Gal(b1-4)[Fuc(a1-3)]GlcNAc(b1-3)GalNAc
# Method in brief: as §1
# [40] = molecular target: Fuc(a1-2)[Gal(a1-4)]Gal(b1-4)GlcNAc
# Method in brief: as §1
# [41] = molecular target: Fuc(a1-2)[GalNAc(a1-3)]Gal
# Method in brief: as §1
# [42] = molecular target: Fuc(a1-2)[GalNAc(a1-3)]Gal(b1-3)GalNAc(a1-3)[Fuc(a1-2)]Gal(b1-4)GlcNAc
# Method in brief: as §1
binder,measurement,setting,value
B1,glycan array binding signal (z-score),[1],-0.117
same,glycan array binding signal (z-score),[2],-0.237
same,glycan array binding signal (z-score),[3],-0.038
same,glycan array binding signal (z-score),[4],-0.208
same,glycan array binding signal (z-score),[5],-0.148
same,glycan array binding signal (z-score),[6],-0.202
same,glycan array binding signal (z-score),[7],-0.204
same,glycan array binding signal (z-score),[8],-0.113
same,glycan array binding signal (z-score),[9],-0.236
same,glycan array binding signal (z-score),[10],-0.214
same,glycan array binding signal (z-score),[11],-0.214
same,glycan array binding signal (z-score),[12],-0.186
same,glycan array binding signal (z-score),[13],-0.073
same,glycan array binding signal (z-score),[14],-0.122
same,glycan array binding signal (z-score),[15],-0.019
same,glycan array binding signal (z-score),[16],1.86
same,glycan array binding signal (z-score),[17],-0.228
same,glycan array binding signal (z-score),[18],-0.241
same,glycan array binding signal (z-score),[19],-0.282
same,glycan array binding signal (z-score),[20],-0.253
same,glycan array binding signal (z-score),Fuc(a1-2)Gal6S(b1-4)Glc,-0.148
same,glycan array binding signal (z-score),[21],-0.217
same,glycan array binding signal (z-score),[22],-0.221
same,glycan array binding signal (z-score),Fuc(a1-2)GlcNAc,-0.24
same,glycan array binding signal (z-score),Fuc(a1-2)[Gal(a1-3)]Gal,-0.107
same,glycan array binding signal (z-score),[23],-0.178
same,glycan array binding signal (z-score),[24],-0.064
same,glycan array binding signal (z-score),[25],-0.131
same,glycan array binding signal (z-score),[26],-0.218
same,glycan array binding signal (z-score),[27],0.051
same,glycan array binding signal (z-score),[28],-0.241
same,glycan array binding signal (z-score),[29],-0.239
same,glycan array binding signal (z-score),[30],-0.22
same,glycan array binding signal (z-score),[31],-0.206
same,glycan array binding signal (z-score),[32],-0.224
same,glycan array binding signal (z-score),[33],-0.159
same,glycan array binding signal (z-score),[34],-0.091
same,glycan array binding signal (z-score),[35],-0.135
same,glycan array binding signal (z-score),[36],-0.206
same,glycan array binding signal (z-score),[37],-0.2
same,glycan array binding signal (z-score),[38],-0.173
same,glycan array binding signal (z-score),[39],0.653
same,glycan array binding signal (z-score),[40],-0.171
same,glycan array binding signal (z-score),[41],-0.238
same,glycan array binding signal (z-score),[42],-0.105
